In paper PMC4336329 (PLoS ONE, 2015):
About 2,200 (0.71%) of roughly 310,000 compounds showed an effect of 50% or more. Effects have a minus sign here. Some of the results follow.

Target: human ether-à-go-go-related gene (hERG) potassium channel (human, UniProt Q12809)
Assay: primary screen, population patch clamp on CHO cells stably expressing hERG

Sequence of human ether-à-go-go-related gene (hERG) potassium channel (Q12809 whole entry, looked up): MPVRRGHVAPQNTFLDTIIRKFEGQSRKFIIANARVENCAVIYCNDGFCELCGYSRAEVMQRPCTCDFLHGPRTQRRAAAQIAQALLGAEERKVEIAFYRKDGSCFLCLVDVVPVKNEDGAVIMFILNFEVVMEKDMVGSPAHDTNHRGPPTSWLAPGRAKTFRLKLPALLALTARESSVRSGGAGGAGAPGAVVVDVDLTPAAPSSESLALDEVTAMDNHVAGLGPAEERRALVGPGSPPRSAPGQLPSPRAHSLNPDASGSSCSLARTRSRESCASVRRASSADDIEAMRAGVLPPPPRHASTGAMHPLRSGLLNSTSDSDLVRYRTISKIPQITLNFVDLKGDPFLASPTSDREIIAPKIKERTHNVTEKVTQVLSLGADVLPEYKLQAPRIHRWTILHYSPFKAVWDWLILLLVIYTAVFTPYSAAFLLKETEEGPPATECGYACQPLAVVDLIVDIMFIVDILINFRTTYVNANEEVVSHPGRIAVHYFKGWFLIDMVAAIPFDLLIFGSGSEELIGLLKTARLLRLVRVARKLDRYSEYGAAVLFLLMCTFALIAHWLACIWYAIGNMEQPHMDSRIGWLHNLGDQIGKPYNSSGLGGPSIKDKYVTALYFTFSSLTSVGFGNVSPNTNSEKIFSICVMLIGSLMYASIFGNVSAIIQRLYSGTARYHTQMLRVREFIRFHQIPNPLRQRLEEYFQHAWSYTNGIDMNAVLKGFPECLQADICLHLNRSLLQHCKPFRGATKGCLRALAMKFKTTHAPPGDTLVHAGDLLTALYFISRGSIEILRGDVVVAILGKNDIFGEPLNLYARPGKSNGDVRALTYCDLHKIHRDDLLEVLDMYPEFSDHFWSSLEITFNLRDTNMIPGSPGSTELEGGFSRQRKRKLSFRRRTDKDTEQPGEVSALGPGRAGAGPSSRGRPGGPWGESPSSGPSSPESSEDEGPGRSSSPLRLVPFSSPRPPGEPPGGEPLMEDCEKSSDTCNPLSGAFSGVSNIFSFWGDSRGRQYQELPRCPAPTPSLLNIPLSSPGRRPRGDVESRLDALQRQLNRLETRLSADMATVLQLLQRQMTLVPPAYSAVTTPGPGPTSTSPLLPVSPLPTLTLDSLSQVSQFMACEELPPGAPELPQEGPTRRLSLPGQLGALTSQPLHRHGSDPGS

First: CCOC(=O)C(O)(NC(=O)c1cccnc1)C(F)(F)F (centres unmarked)
Second: C/C(CC(=O)Nc1cccc(C(F)(F)F)c1)=N\NC(=O)c1cnccn1
The “hERG current change (%, negative = inhibition) at 1uM” value of the first is higher: 7.51% for the first, 6.96% for the second.

First: COc1ccc(OC)c(N(C(=O)c2ccco2)C(C(=O)NC2CCCC2)c2cc(OC)c(OC)c(OC)c2)c1 (centres unmarked)
Second: COc1cccc(-c2nc(NC3CCCC3)c3ccccc3n2)c1O
The “hERG current change (%, negative = inhibition) at 1uM” value of the first is lower: 19.8% for the first, 21.5% for the second.

Going from `O=C1C(=O)N(CCCN2CCOCC2)C(c2ccc(F)cc2)/C1=C(\O)c1ccc2c(c1)OCCO2` (centres unmarked) to `Cc1sc2nc(CN3CCOCC3)nc(NS(=O)(=O)c3ccccc3)c2c1C`, the “hERG current change (%, negative = inhibition) at 1uM” value rises from 1.85% to 15.1%.

First: CC(C)(C)OC(=O)N1CCC(C(N)=O)CC1
Second: Cc1ccc(CN2CCC(C(=O)NCCC(C)C)CC2)o1.O=C(O)C(=O)O
The “hERG current change (%, negative = inhibition) at 1uM” value of the first is lower: 5.04% for the first, 10% for the second.

Going from `O=C(O)c1cccnc1SCc1cn2cc(Br)ccc2n1` to `O=C(O)CCc1ccc(-c2ccc(Br)cc2)o1`, the “hERG current change (%, negative = inhibition) at 1uM” value rises from 7.81% to 12.6%.

First: O=C(O)c1cccc(NC(=S)NC(=O)c2ccc(-c3ccccc3)cc2)c1
Second: O=C(O)c1ccc(N/N=C/C=C/c2ccccc2)cc1
The “hERG current change (%, negative = inhibition) at 1uM” value of the first is lower: 9.32% for the first, 17.2% for the second.

First: O=C(c1ccco1)N1CCN(S(=O)(=O)/C=C/c2ccccc2)CC1
Second: COc1ccc(CN2CCN(C(=O)c3ccco3)CC2)cc1
The “hERG current change (%, negative = inhibition) at 1uM” value of the first is lower: -7.19% for the first, 6.08% for the second.

Going from `COc1ccc(NC(=S)NCCc2ccc(S(N)(=O)=O)cc2)c(OC)c1` to `COc1ccc(N(C)C(=O)CCS(=O)(=O)c2cccc3nonc23)c(OC)c1`, the “hERG current change (%, negative = inhibition) at 1uM” value falls from 14.3% to 8%.

Compared with `CC(C(O)c1ccc(O)cc1)N1CCC(Cc2ccccc2)CC1.O=C(O)C(O)C(O)C(=O)O` (centres unmarked), `O=C(NCc1ccc(F)cc1)Nc1ccccc1` is higher in “hERG current change (%, negative = inhibition) at 1uM” value: -33.4% for the first, 20.6% for the second.

First: Cc1cc(C(=O)NNC(=S)Nc2ccccc2)nn1C
Second: Cc1c(Br)c(C(=O)N2CCc3ccccc32)nn1C
The “hERG current change (%, negative = inhibition) at 1uM” value of the first is higher: 18.1% for the first, 13.2% for the second.

Compared with `O=C(CSCc1ccc(F)cc1)Nc1nc2c(s1)CCCC2`, `CCOC(=O)c1c(NC(=S)NC(=O)c2ccco2)sc2c1CCCC2` is higher in “hERG current change (%, negative = inhibition) at 1uM” value: -0.862% for the first, 15.6% for the second.

First: CCC(=O)Nc1ccc2c(c1)C(=O)N(C)C2=O
Second: Cc1ccc(NC(=O)CCN2C(=O)c3ccccc3S2(=O)=O)cc1C
The “hERG current change (%, negative = inhibition) at 1uM” value of the first is higher: 12.4% for the first, -3.09% for the second.

Compared with `CCCNC(=O)NC(=O)COC(=O)c1ccc(OC)c(S(=O)(=O)N2CCCc3ccccc32)c1`, `CCCCn1c(N)c(N(CCOC)C(=O)C2CCCN(C(=O)c3ccc(Cl)cc3)C2)c(=O)[nH]c1=O` (centres unmarked) is lower in “hERG current change (%, negative = inhibition) at 1uM” value: 9.12% for the first, -7.09% for the second.

Going from `C[C@]12CCC(O)CC1=CCC1C2CC[C@]2(C)/C(=N\NC(N)=S)CCC12` (some centres unmarked) to `COc1ccccc1CC(=O)NC1CCCCCC1`, the “hERG current change (%, negative = inhibition) at 1uM” value rises from -1.5% to 13.2%.

Compared with `CCOCCc1nnc(NC(=O)CS(=O)(=O)Cc2ccccc2)s1`, `CCOc1ncccc1C(=O)N(CC)CC(=O)NCc1ccc(Cl)cc1` is lower in “hERG current change (%, negative = inhibition) at 1uM” value: 11.1% for the first, 8.83% for the second.

Compared with `Cc1cccc(N(C(=O)c2snc(C(N)=O)c2N)C(C(=O)NCC2CCCO2)c2cccs2)c1` (centres unmarked), `O=C(NCc1cccs1)C1CC(c2ccc(Cl)c(Cl)c2)=NO1` (centres unmarked) is higher in “hERG current change (%, negative = inhibition) at 1uM” value: 4.9% for the first, 11.6% for the second.

Going from `Cc1ccc(OCC(O)CN2CCN(CC(O)COc3ccc(C)cc3Cl)CC2)c(Cl)c1` (centres unmarked) to `COc1ccc(N=Cc2c(O)n(-c3ccc(C)cc3)c(=O)[nH]c2=O)cc1`, the “hERG current change (%, negative = inhibition) at 1uM” value rises from -5.75% to 8.42%.

Compared with `c1ccc(-c2csc3ncnc(-n4cnc5ccccc54)c23)cc1`, `COc1ccc(-n2cc(-c3ccccc3)[nH]c2=S)cc1` is higher in “hERG current change (%, negative = inhibition) at 1uM” value: 2.21% for the first, 5% for the second.

Compared with `CCCCCCCN1C(N(C)C)=NC[C@@H]1Cc1ccccc1`, `O=C(O)CSCc1cnn(-c2ccccc2)c1-n1cccc1` is higher in “hERG current change (%, negative = inhibition) at 1uM” value: -69% for the first, 1.54% for the second.

Going from `CSc1cccc(-n2cc(-c3ccc4c(c3)OCO4)[nH]c2=O)c1` to `O=C(COC(=O)Cc1n[nH]c(=O)c2ccccc12)Nc1c(Cl)cccc1C(F)(F)F`, the “hERG current change (%, negative = inhibition) at 1uM” value rises from 2.39% to 16.3%.

First: COc1ccc2nc(/C(C#N)=C\c3ccc(C(=O)O)cc3)[nH]c2c1
Second: Cc1ccc(NC(=O)CN(C)C(=O)c2ccc(-n3cncn3)c([N+](=O)[O-])c2)cc1
The “hERG current change (%, negative = inhibition) at 1uM” value of the first is higher: 12.5% for the first, 0.604% for the second.

First: CC1CCC(C(C)C)C(OCC(O)CNC(C)(C)C)C1.Cl (centres unmarked)
Second: O=C(CC1CCCCC1)N1CCCC(c2nc(-c3ccc(S(=O)(=O)N4CCCC4)cc3)no2)C1 (centres unmarked)
The “hERG current change (%, negative = inhibition) at 1uM” value of the first is higher: 14% for the first, 3.86% for the second.
